# Laboratory results from ChEMBL document CHEMBL4888484, “Replenishing the malaria drug discovery pipeline: Screening and hit evaluation of the MMV Hit Generation Library 1 (HGL1) against asexual blood stage Plasmodium falciparum ,using a nano luciferase reporter read-out” (2022).
# The whole screen tested about 150,000 compounds, of which about 540 (0.36%) showed an effect of 50% or more. This is one part of the list.
# Test system: Plasmodium falciparum
# Assay: Primary screen in NF54 nanoGlo assay, in single point, at 2uM, 72h; a lower Z score goes with more inhibition
# Assay type: functional, Erythrocyte
# Conditions: timepoint 72 hour
Structure (SMILES),% Inhibition,Z score
CCN1C(=O)C(C)(C)N[C@]1(C)Cc1ccc(O)cc1,-8%,0.78
Cc1cc(=O)n2nc(CN(C)c3cnn(C)c3)sc2n1,-6%,1.14
CN(C)c1ccccc1C(=O)N[C@H]1CC(=O)N(CCCc2ccccc2)C1,1%,-0.09
CC(=O)N(c1nc(COc2nc(C(C)(C)C)no2)cs1)c1ccccc1F,42%,-1.58
Cc1cn2nc(NCc3cccs3)sc2n1,3%,-0.43
OC[C@@H](Nc1nc(-c2ccncc2)nc2c1CCNCC2)c1ccccc1,5%,-0.56
CC(C)[C@@](C)(C#N)NC(=O)c1ccccc1F,-10%,1.11
O=C(CCOCC(F)(F)F)NC(c1cccs1)c1cccs1,4%,-0.6
CN(C(N)=NCCN1CCc2c(Cl)cccc2C1)C1CC1,8%,-1.07
Fc1ccc(-c2cncc(CN3CCCC3)c2)c(F)c1,-5%,0.48
O=C(Cn1c(-c2cccs2)cc2cc(F)ccc21)N1CCN(c2cccc(Cl)c2)CC1,-1%,0.14
Cc1cnc(C(=O)NC[C@H]2CCCN(Cc3cccc(O)c3)C2)cn1,-7%,1.09
Cc1ccc(-c2ncn(C3CCCCC3)c2-c2ccc(C(=O)NCCCN3CCOCC3)o2)cc1,0%,-0.06
Cc1ccc(Nc2cc(C)n3c(=O)n(Cc4ccc(F)cc4)nc3n2)cc1,-12%,1.25
CCCN(C[C@H]1CCCCO1)C(=O)c1ccoc1,-8%,0.81
COCC(C)(CNC(=O)CC1C=CCC1)NC(=O)CC1C=CCC1 (centres undefined),3%,-0.44
CC1(C)OCC[C@@H]1CNC(=O)N[C@H]1C[C@H](c2cccc(Cl)c2)C1,27%,-3.57
CC(C)(C)NC(=O)N1CCC(=C2CCC2)CC1,-15%,2.33
c1cc(COc2ccc(N3CCCC3)cc2)no1,31%,-3.52
CCN(CC(=O)N1CCCCCC1)C(=O)c1cc(F)cc2ccoc12,-1%,0.11
O=C(NCc1ccnc(N2CCCCCC2)c1)NC1CC2CCC1O2 (centres undefined),-1%,0.21

Structure (SMILES),% Inhibition,Z score
O=C(CCc1nc(-c2ccsc2)no1)NCc1ccc(C2CC2)cc1,2%,-0.2
COc1cc(CN2CCCN(c3ccc(C)cc3NC(=O)c3ccccc3OC)C2=O)cc(OC)c1,-3%,0.43
Cc1c[nH]c(CN2CCC[C@H](CCC(=O)N3CCOCC3)C2)n1,11%,-1.65
O=C1C(=O)N(C/C=C/c2ccccc2)c2ccccc21,-33%,3.85
CC(C)c1ccc([C@@H](NC(=O)CN2CCCN(C)CC2)C(C)C)cc1,-10%,1.46
CN(C)CCNC(=O)c1cc2c(n1C)CCN(Cc1ccc(F)cc1)C2,6%,-0.68
CCn1c(CCc2ccc(NC(=O)c3ccc(F)cc3)cc2)nc2ccccc21,-9%,0.86
O=C(c1cc2n(n1)CCC2)N1CC2(CC2)c2ccccc21,-2%,0.25
C[C@@H](c1nc2c(s1)CCCC2)n1cc(-c2ccc(CO)o2)nn1,5%,-0.64
COC1CCC(CC(=O)N[C@H]2CC(=O)N(c3ccccc3)C2)CC1 (some centres undefined),31%,-0.94
CC(C)c1csc(CNC(=O)c2ccc(CO)nc2)n1,-10%,1.59
COc1ccc(C(=O)N2CCN(c3cc(C)n4c(C)nnc4n3)CC2)cc1,-13%,1.66
Cc1cccc2oc(CCNS(=O)(=O)Cc3ccccc3)nc12,2%,-0.21
Cc1cc(-c2noc(CNC(=O)c3sc(C)nc3C)n2)no1,-10%,1.3
CCn1nc(-c2ccc(C)c(S(=O)(=O)NCc3ccc(C)cc3)c2)c2c(c1=O)CCCC2,-4%,0.66
Cc1cccc(=O)n1CC(C)(O)C(=O)NC1CCCc2ccccc21 (centres undefined),-11%,1.71
CC(C)c1ccc(C#N)c(N[C@H]2C[C@H]3OCC[C@@H]23)n1,0%,-0.09
CC(=O)Nc1cc(C(=O)N(C)CCCN2CCCCC2)cc2ncn(CCc3ccccn3)c12,-8%,1.19
COc1ccc(C(=O)N2CCN(c3ccc(NC(=O)c4cccs4)cc3C(=O)NCc3ccc(F)cc3)CC2)cc1,-4%,0.65
Cc1cccc(-c2noc(N3CCOCC3)c2CN(C(=O)C2CCCC2)C2CC2)c1,3%,-0.47
Cc1nc(C(=O)NC[C@@H](c2sccc2C)N(C)C)cs1,-8%,1.44
